# Source: the supplement of paper PMC10126150
# Values marked as one replicate rest on one cluster of the flow cell; about a third of the high ones do not repeat.
# System: ATP
# Assay: switch fluorescence ratio, 500 uM ATP over buffer (Cy3 cluster intensity, sum of 5 cycles each) (fold (ratio)); higher = stronger signal-on switching upon ATP binding; sequences stand for … in TCGTCGGCAGCGTCAGATGTGTATAAGAGACAGTTTTTTTTTTTTTTTTTTTTTTTTT…TC
# Conditions: aptamer strand: ATP DNA aptamer (quencher-CACCTGGGGGAGTATTGCGGAGGAAGG + anchor), 100 nM annealed; ATP concentration: 500 uM; one replicate
# Outline: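 After annealing to 100 nM quencher-labelled ATP aptamer, Cy3-labelled switching-strand clusters on a modified Illumina MiSeq flow-cell were imaged in selection buffer. A second image followed after 15 min with 500 uM ATP at 22 °C, and five such buffer/ATP cycles were done, each separated by NaOH stripping and re-annealing. The fluorescence ratio, averaged per switch-domain sequence, is summed target-cycle over summed buffer-cycle Cy3 intensity per cluster, with clusters outside 100-1000 RFU excluded.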
# 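Note: ATP exposure 15 min at 22 °C before imaging.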
row,Sequence,switch fluorescence ratio
1,TTTAATGATA,1
2,TTTAATGTTC,1
3,TTTACAGCCA,1.01
4,TTTACCCTTC,1.09
5,TTTACCTTT,1.13
6,TTTACGCATG,1.06
7,TTTACGGTTT,1
8,TTTACTAAAA,1.06
9,TTTACTCACG,1.39
10,TTTACTCATG,0.965
11,TTTAGATCCC,0.977
12,TTTAGCCCCC,1.08
13,TTTAGGCGTA,1.03
14,TTTAGTACTT,1.06
15,TTTAGTCAGC,1.02
16,TTTAGTGCGT,0.995
17,TTTAGTGTT,0.934
18,TTTATAAAAG,1.02
19,TTTATAATT,1
20,TTTATATAGT,0.946
21,TTTATCGGTC,0.952
22,TTTATCTAAA,1.02
23,TTTATGTGTC,1.06
24,TTTATGTTCA,1.01
25,TTTATTAAA,1.05

row,Sequence,switch fluorescence ratio
1,TTTATTACTA,1.02
2,TTTATTCTCA,0.996
3,TTTATTTAAA,1.03
4,TTTCAACGTA,1.04
5,TTTCAACTTG,0.944
6,TTTCACATGC,1.02
7,TTTCACGG,0.969
8,TTTCAGTCTT,1.01
9,TTTCATGCTC,1
10,TTTCATGGGC,0.936
11,TTTCCAACGT,0.98
12,TTTCCATAC,2.41
13,TTTCCCCCGC,3.41
14,TTTCCGCGTC,2.72
15,TTTCCTAGGG,0.975
16,TTTCCTATGT,1.01
17,TTTCCTTTAT,1.01
18,TTTCGAATTA,1.04
19,TTTCGAGGTC,1.01
20,TTTCGATCAA,1.01
21,TTTCGCAGAG,4.19
22,TTTCGCTGTA,0.959
23,TTTCGGATCT,1.01
24,TTTCGGCCG,1.16
25,TTTCGGCTTG,0.992

row,Sequence,switch fluorescence ratio
1,TTTCGGTGT,0.977
2,TTTCGGTTAC,1.09
3,TTTCGTGTCG,1
4,TTTCGTTAAG,1.02
5,TTTCGTTGTG,1.01
6,TTTCTATCGG,0.992
7,TTTCTCACAC,1.31
8,TTTCTCAGGC,0.945
9,TTTCTCTATA,1
10,TTTCTGGTAT,0.988
11,TTTCTGTAGC,1.54
12,TTTCTTCTGG,1.02
13,TTTGAACATT,0.983
14,TTTGAATCCA,1.03
15,TTTGAATTC,1.02
16,TTTGACTCCA,1.06
17,TTTGACTCGA,1.01
18,TTTGAGCGAC,1.04
19,TTTGAGGTAC,1.02
20,TTTGAGTCGT,1.02
21,TTTGAT,0.948
22,TTTGATAACA,1.03
23,TTTGATCATT,0.999
24,TTTGATCG,0.996
25,TTTGATGATG,0.971

row,Sequence,switch fluorescence ratio
1,TTTGATTAGT,1.01
2,TTTGCAGTA,1.07
3,TTTGCAGTAG,1.18
4,TTTGCCCAGT,1.05
5,TTTGCCGAAT,1.05
6,TTTGCCTATC,0.99
7,TTTGCGCAGG,1.08
8,TTTGCGTAA,1.01
9,TTTGCTGCGA,0.974
10,TTTGCTTGGA,1.07
11,TTTGGAGTAT,1.19
12,TTTGGATCGG,1.01
13,TTTGGCAAC,1.04
14,TTTGGCAATG,1.07
15,TTTGGGAACC,1.02
16,TTTGGGCAA,1.15
17,TTTGGTAGTG,0.994
18,TTTGGTCCAA,0.97
19,TTTGTAAGCA,1.01
20,TTTGTACCT,1.19
21,TTTGTAGCCT,1.02
22,TTTGTATGAC,1.42
23,TTTGTCCTC,1.01
24,TTTGTCGCTC,1.01
25,TTTGTTAACC,1.01

row,Sequence,switch fluorescence ratio
1,TTTGTTCAGT,0.952
2,TTTGTTGCGC,0.988
3,TTTGTTGGTT,1.03
4,TTTGTTTATG,1.01
5,TTTTAAGATC,0.968
6,TTTTAAGTCC,1.07
7,TTTTAATCGC,0.991
8,TTTTACATGA,0.985
9,TTTTACCGGT,1.04
10,TTTTACCTCT,1.28
11,TTTTACGAT,1.11
12,TTTTAGCCTT,1.03
13,TTTTCAACC,1.05
14,TTTTCACCAG,1.04
15,TTTTCACTAT,1.04
16,TTTTCAGGGA,1
17,TTTTCCAAAA,1.09
18,TTTTCCACTT,1.01
19,TTTTCCCCAA,1.43
20,TTTTCCTGAA,0.991
21,TTTTCGATAA,0.965
22,TTTTCGCAT,1.28
23,TTTTCGCCTC,0.988
24,TTTTCGGCG,1.24
25,TTTTCTAAGA,0.983

row,Sequence,switch fluorescence ratio
1,TTTTCTGGTG,1.18
2,TTTTCTTCTA,1.02
3,TTTTCTTGCG,0.942
4,TTTTGAAACA,1.03
5,TTTTGAACAT,0.995
6,TTTTGCAT,1.03
7,TTTTGCATAG,1.05
8,TTTTGCTAGG,0.98
9,TTTTGGAAT,0.948
10,TTTTGGTTT,0.968
11,TTTTTACAA,1
12,TTTTTACCGG,1.03
13,TTTTTACCTC,0.956
14,TTTTTAGCG,0.97
15,TTTTTAGGA,0.991
16,TTTTTCCTCC,1.9
17,TTTTTCGGA,1.01
18,TTTTTCTGCA,1.08
19,TTTTTGCCAG,0.988
20,TTTTTGCGCA,0.968
21,TTTTTTGTG,0.974
